The results in this text go back to patent US20260078159A1 (CUGENE, published 2026).

The target in assay [1] is T1, recombinant human PD1 protein (human, UniProt Q15116 partial chain, limits assumed). Description: competition ELISA, PD1 coated, biotinylated human PD-L1-Fc at 0.5 µg/mL as competitor. As for the experimental part:
A non-targeting germline antibody, P-1260 (SEQ ID NOS: 171, 172 and 173) was included as the negative control. The binding ELISA procedures were outlined in Example 3. The competition ELISA followed a similar protocol. […] After 1-hour incubation at 37° C., HRP-conjugated Streptavidin (ThermoFisher) diluted to 0.1 μg/ml were added to the plate and incubate at 37° C. for 1 hour. The plate was subsequently developed using TMB (ThermoFisher) substrate. Absorbance readings were taken at 450 nm, with 630 nm as the reference wavelength. The half-maximal inhibitory concentrations (IC50) values were deduced using GraphPad Prism software.
In general terms: ELISA stands for enzyme-linked immunosorbent assay.

Assay [2] concerns the target T1, recombinant human PD1 protein. Description: binding ELISA, plate-coated recombinant human PD1. As for the experimental part:
Antibodies of the invention were tested for their antigen binding activity by well-known methods such as enzyme-linked immunosorbent assay (ELISA). Briefly, Nunc Maxisorp plates (ThermoFisher) were coated with recombinant human PD1 protein in bicarbonate buffer, pH 9.4 (ThermoFisher), overnight at 4° C., using 1 μg of antigen per well (100 μL/well). After triple washing with PBS/0.05% Tween 20, plates were incubated with SuperBlock (ThermoFisher) for two hours at room temperature to block nonspecific binding. The PD1 antibodies, serially diluted three-fold with blocking buffer (PBS with 1% bovine serum albumin) were added to the plates (100 μL/well) post washing and incubated at room temperature for one hour. After another washing, antibodies were detected by incubating with a horseradish peroxidase (HRP)-conjugated goat anti-human IgG Fc antibody (ThermoFisher) diluted 1:5000 in blocking buffer (100 μL/well) for one hour at room temperature. After a final wash, TMB substrate (ThermoFisher) at 100 μL/well was added. Plates were sealed and left to incubate in dark for 5-20 minutes. The reaction was stopped by adding 2N sulfuric acid (Ricca Chemical) (50 μL/well), and the absorbance was measured at 450 nm with a plate reader. The curves were plotted, and the half-maximal effective concentration (EC₅₀) values were calculated using GraphPad Prism software.

By IC50 is commonly meant the concentration needed to halve the response being measured. A word on the EC50: it is the midpoint of the concentration-response curve.

T1 sequence (Q15116 25-170 limits assumed): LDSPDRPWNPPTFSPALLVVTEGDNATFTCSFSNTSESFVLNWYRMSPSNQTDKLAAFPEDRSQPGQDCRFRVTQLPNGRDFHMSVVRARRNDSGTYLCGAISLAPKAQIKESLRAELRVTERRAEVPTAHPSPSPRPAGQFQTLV

B1: P-1352 (other)
heavy 1: QVQLVQSGAEVKKPGASVKVSCKASGYTFTNYYMYWVRQAPGQGLEWMGGINPSNGGTNFAQKFQGRVTLTTDSSTSTAYMELSSLRSDDTAVYYCARRDYRFDMGFDYWGQGTLVTVSSASTKGPSVFPLAPSSKSTSGGTAALGCLVKDYFPEPVTVSWNSGALTSGVHTFPAVLQSSGLYSLSSVVTVPSSSLGTQTYICNVNHKPSNTKVDKKVEPKSCDKTHTCPPCPAPEAAGAPSVFLFPPKPKDTLMISRTPEVTCVVVDVSHEDPEVKFNWYVDGVEVHNAKTKPREEQYNSTYRVVSVLTVLHQDWLNGKEYKCKVSNKALPAPIEKTISKAKGQPREPQVYTLPPCREEMTKNQVSLWCLVKGFYPSDIAVEWESNGQPENNYKTTPPVLDSDGSFFLYSKLTVDKSRWQQGNVFSCSVMHEALHNHYTQKSLSLSPGGGGGSGGGGSGGGGS[letters of about 120 residues left out]
heavy 2: QVQLVQSGAEVKKPGASVKVSCKASGYTFTNYYMYWVRQAPGQGLEWMGGINPSNGGTNFAQKFQGRVTLTTDSSTSTAYMELSSLRSDDTAVYYCARRDYRFDMGFDYWGQGTLVTVSSASTKGPSVFPLAPSSKSTSGGTAALGCLVKDYFPEPVTVSWNSGALTSGVHTFPAVLQSSGLYSLSSVVTVPSSSLGTQTYICNVNHKPSNTKVDKKVEPKSCDKTHTCPPCPAPEAAGAPSVFLFPPKPKDTLMISRTPEVTCVVVDVSHEDPEVKFNWYVDGVEVHNAKTKPREEQYNSTYRVVSVLTVLHQDWLNGKEYKCKVSNKALPAPIEKTISKAKGQPREPQVCTLPPSREEMTKNQVSLSCAVKGFYPSDIAVEWESNGQPENNYKTTPPVLDSDGSFFLVSKLTVDKSRWQQGNVFSCSVMHEALHNHYTQKSLSLSPG
light: EIVLTQSPATLSLSPGERATLSCRASQGVSTSGYSYLHWYQQKPGQAPRLLIYLASYRESGVPARFSGSGSGTDFTLTISSLEPEDFAVYYCQHSRDLPLTFGGGTKVEIKRTVAAPSVFIFPPSDEQLKSGTASVVCLLNNFYPREAKVQWKVDNALQSGNSQESVTEQDSKDSTYSLSSTLTLSKADYEKHKVYACEVTHQGLSSPVTKSFNRGEC
chain: ITCPPPMSVEHADIWVKSYSLYSRERYICNSGFKRKAGTSSLTECVLNKATNVAHWTTPSLKCIRDPALVHQRPAPP
notes: also called PD1 Ab-IL15 immunocytokine; human PD1 Ab-IL-15 I68H/Q108N immunocytokine
On to B1, for which the IC50 in assay [1] was 1.88 nM. For the same molecule, the EC50 in assay [2] was 0.0304 nM.
